Source: PubChem BioAssay (NCI)
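Where inhibition never reached the appropriate level, the endpoint shown equals the highest concentration tested. Otherwise, values were interpolated linearly from a five-concentration, 48-hour dose response in 96-well plates. GI50: concentration for 50% inhibition of growth. TGI denotes the concentration required for complete inhibition of growth.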

Tested on: NCI-H322M lung
Assay: DTP human tumour cell line panel, 48 h

Structure (SMILES) | GI50 | TGI
CCCNNC(=O)c1ccc(-c2ccc(NC(=O)CCCCCCC(=O)N[C@H](C(=O)N3C[C@H](O)C[C@H]3C(=O)N[C@@H](C)c3ccc(-c4scnc4C)cc3)C(C)(C)C)cc2)cc1 | 3.63 µM | > 100 µM
Nc1ncc(-c2ccc3ncnc(N4CCc5cc(F)c(Cl)cc54)c3c2)cn1 | 0.937 µM | > 100 µM
